Our source for the AUC and Cmax values is patent US20100292337A1, “Polar Hydrophilic Prodrugs of Amphetamine and Other Stimulants and Processes for Making and Using the Same” (priority 2007, published 2010).

The term AUC denotes the area under the concentration-time curve, a measure of exposure. A word on the Cmax: it is the peak of the concentration-time curve.

The data set in a line: Example 17: oral pharmacokinetic study of Cit-Amp, hCit-Amp and Lys-Amp at seven dosage levels, plasma d-amphetamine by LC-MS/MS. Particulars: oral gavage, rat, released d-amphetamine.

As to “l-citrulline-d-amphetamine hydrochloride [Cit-Amp]”, the exposure (AUC) reads like this: (dose 0.5 mg/kg d-Amp content) 122 ng·h/mL; (dose 4.5 mg/kg d-Amp content) 721 ng·h/mL; (dose 10 mg/kg d-Amp content) 1689 ng·h/mL.

Take “l-homocitrulline-d-amphetamine hydrochloride [hCit-Amp]”: the AUC (dose 0.5 mg/kg d-Amp content) worked out at 99 ng·h/mL, the area under the curve (AUC) (dose 4.5 mg/kg d-Amp content) stood at 755 ng·h/mL and the AUC (dose 10 mg/kg d-Amp content) came out at 1400 ng·h/mL. Also, the peak concentration (Cmax) (dose 0.5 mg/kg d-Amp content) amounted to 20.1 ng/mL, the maximum concentration (Cmax) (dose 4.5 mg/kg d-Amp content) is reported as 124.2 ng/mL and the Cmax (dose 10 mg/kg d-Amp content) was 216.4 ng/mL.

Consider “l-lysine-d-amphetamine [Lys-Amp, reference compound]”, for which the AUC reads like this: (dose 0.5 mg/kg d-Amp content) 131 ng·h/mL; (dose 4.5 mg/kg d-Amp content) 873 ng·h/mL; (dose 10 mg/kg d-Amp content) 3162 ng·h/mL. The highest concentration (Cmax) came to 22.7 ng/mL (dose 0.5 mg/kg d-Amp content), 152.0 ng/mL (dose 4.5 mg/kg d-Amp content) and 554.4 ng/mL (dose 10 mg/kg d-Amp content).
